Experimental data taken from PMC4980666, “N-acylhydrazone inhibitors of influenza virus PA endonuclease with versatile metal binding modes” (Scientific Reports, 2016).

Target: recombinant PA-Nter (residues 1–217 from the PA protein of influenza virus strain A/X-31) (Influenza A virus, UniProt P03433)
Test: Plasmid-based endonuclease assay with recombinant PA-Nter
Format: biochemical
Conditions: Enzyme assay with PA-Nter IC50, ssDNA plasmid substrate, Mn2+-containing buffer, 2 hr incubation

SMILES | IC50
NC(=O)N/N=C/c1cccc(O)c1O [Compound 1, N’-(2,3-dihydroxybenzylidene)-semicarbazide] | 24 µM
COc1cccc(/C=N/NC(N)=O)c1O [Compound 2] | > 500 µM
CCCCCCCC(=O)N/N=C/c1cccc(O)c1O [Compound 3] | > 500 µM
CCCCCCCC(=O)N/N=C/c1cccc(OC)c1O [Compound 4] | > 500 µM
O=C(N/N=C/c1cccc(O)c1O)c1ccccc1 [Compound 5] | 84 µM and 67 µM
COc1cccc(/C=N/NC(=O)c2ccccc2)c1O [Compound 6] | > 500 µM
O=C(N/N=C/c1cccc(O)c1O)c1ccccc1O [Compound 7] | 54 µM
COc1cccc(/C=N/NC(=O)c2ccccc2O)c1O [Compound 8] | > 500 µM
O=C(N/N=C/c1cc(O)c(O)cc1O)c1ccccc1O [Compound 9] | 34 µM
O=C(N/N=C/c1c(O)cc(O)cc1O)c1ccccc1O [Compound 10] | 68 µM
O=C(N/N=C/c1cc(O)c(O)c(O)c1)c1ccccc1O [Compound 11] | 45 µM
COc1cc(C(=O)N/N=C/c2cc(O)ccc2O)cc(OC)c1OC [Compound 12] | > 500 µM
O=C(N/N=C/c1ccccc1)c1cc(O)c(O)c(O)c1 [Compound 13] | 69 µM
O=C(N/N=C/c1ccccc1O)c1cc(O)c(O)c(O)c1 [Compound 14] | > 500 µM
O=C(N/N=C/c1cc(O)ccc1O)c1cc(O)c(O)c(O)c1 [Compound 15] | 9 µM and 8.9 µM
COc1ccc(O)c(/C=N/NC(=O)c2cc(O)c(O)c(O)c2)c1 [Compound 16] | 454 µM
O=C(N/N=C/c1ccc(O)cc1O)c1cc(O)c(O)c(O)c1 [Compound 17] | ≥ 370 µM and 482 µM
O=C(N/N=C/c1cccc(O)c1O)c1cc(O)c(O)c(O)c1 [Compound 18] | 83 µM
COc1cccc(/C=N/NC(=O)c2cc(O)c(O)c(O)c2)c1O [Compound 19] | > 500 µM
O=C(N/N=C/c1ccc(O)c(O)c1O)c1cc(O)c(O)c(O)c1 [Compound 20] | 18 µM
O=C(N/N=C/c1cc(O)c(O)cc1O)c1cc(O)c(O)c(O)c1 [Compound 21] | 13 µM
O=C(N/N=C/c1c(O)cc(O)cc1O)c1cc(O)c(O)c(O)c1 [Compound 22] | 75 µM
O=C(N/N=C/c1cc(O)c(O)c(O)c1)c1cc(O)c(O)c(O)c1 [Compound 23] | 7 µM and 8.7 µM
O=C(N/N=C/c1ccccn1)c1cc(O)c(O)c(O)c1 [Compound 24] | 131 µM
O=C(N/N=C/c1ccc[nH]1)c1cc(O)c(O)c(O)c1 [Compound 25] | ~40 µM and 40 µM
O=C(O)c1ccc(-c2cccc(/C=N/NC(=O)c3cc(O)c(O)c(O)c3)c2)cc1 [Compound 26] | ~40 µM and 30 µM
NC(=O)N/N=C/c1cc(O)c(O)c(O)c1 [Compound 27] | 36 µM
NNC(=O)c1cc(O)c(O)c(O)c1 [Compound 28, 3,4,5-trihydroxybenzohydrazide] | ~40 µM and 40 µM

Where “and” joins values, the source holds several entries; their conditions need not be identical. Equal entries are not always repeated.
